# Measurements from the supplement of paper PMC8285479.
# Structures can show the parent of a compound that is named as a salt. ± gives the standard deviation of the averaged measurements. The full ranking holds about 1,900 compounds; the median of “normalised cell viability (NPI; 0 = phenylarsine oxide control, 1 = DMSO control)” is about 1, and the lowest 2% start at about 0.039. This is one part of the list.
# System: NCI-H1944
# Experiment: normalised cell viability (NPI; 0 = phenylarsine oxide control, 1 = DMSO control) (fraction of DMSO control); NCI-H1944 is a non-small cell lung cancer line; higher = more viable cells (less compound toxicity)
# Conditions: 6 days
# [1] = glucocorticoid arm: hydrocortisone 2.75 uM co-treatment, compound 1 µM
# [2] = glucocorticoid arm: hydrocortisone 2.75 uM co-treatment, compound 5 µM
# [3] = glucocorticoid arm: hydrocortisone 2.75 uM pre-treated 2 days and continued, compound 1 µM
# [4] = glucocorticoid arm: hydrocortisone 2.75 uM pre-treated 2 days and continued, compound 5 µM
# [5] = glucocorticoid arm: vehicle, compound 1 µM
# [6] = glucocorticoid arm: vehicle, compound 5 µM
# 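Further: CTB read-out in 384-well plates, mean of triplicate wells, normalised per plate against 1 µM phenylarsine oxide and 0.1% DMSO, compounds added 24 h after seeding.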
Compound,normalised cell viability [1],normalised cell viability [2],normalised cell viability [3],normalised cell viability [4],normalised cell viability [5],normalised cell viability [6]
CC(C)C[C@H](NC(=O)[C@H](Cc1ccccc1)NC(=O)c1cnccn1)B(O)O [Bortezomib (Velcade)],0.352 ± 0.024,0.0578 ± 0.0037,0.677 ± 0.016,0.351 ± 0.042,0.00826 ± 0.0011,0.000986 ± 0.0007
CC(C)C[C@H](NC(=O)[C@H](Cc1ccccc1)NC(=O)c1cnccn1)B(O)O [Bortezomib],0.281 ± 0.011,0.0356 ± 0.0084,0.669 ± 0.035,0.28 ± 0.054,0.00407 ± 0.00064,0.00157 ± 0.00063
O=C(OCCN1CCOCC1)C1(c2ccccc2)CCCCC1,1.01 ± 0.011,1.03 ± 0.088,1.02 ± 0.015,0.891 ± 0.21,1.017 ± 0.0058,1.03 ± 0.011
CS(=O)(=O)c1ccc(C(=O)Nc2ccc(Cl)c(-c3ccccn3)c2)c(Cl)c1 [Vismodegib (GDC-0449)],1.01 ± 0.026,1.013 ± 0.0058,1.02 ± 0.011,1.01 ± 0.017,1.01 ± 0.01,1.01 ± 0.01
CS(=O)(=O)c1ccc(C(=O)Nc2ccc(Cl)c(-c3ccccn3)c2)c(Cl)c1 [Vismodegib],1.02 ± 0.015,1.01 ± 0.028,1.03,1.023 ± 0.0058,1.007 ± 0.0058,1.01 ± 0.01
O=C1C(c2c(O)[nH]c3ccccc23)=Nc2ccccc21 [Indirubin],1.117 ± 0.0058,1.19 ± 0.015,1.1 ± 0.01,1.12 ± 0.036,1.037 ± 0.0058,1.05 ± 0.011
CNc1nc(-c2ccc3c(N)n[nH]c3c2)cc(N2C[C@@H](C(=O)NC3CCCCC3)CC[C@H]2C)n1,0.835 ± 0.023,0.759 ± 0.029,0.8143 ± 0.0061,0.731 ± 0.049,0.916 ± 0.034,0.737 ± 0.03
CN1CCN(S(=O)(=O)c2ccc(-c3cnc(N)c(C(=O)Nc4cccnc4)n3)cc2)CC1,1.113 ± 0.011,1.2 ± 0.015,1.1 ± 0.011,1.1 ± 0.021,0.743 ± 0.0076,0.959 ± 0.021
O=C(O)C1CCCNC1 (racemic) [(±)-Nipecotic acid],0.9947 ± 0.005,1.01 ± 0.014,1.02 ± 0.059,1.02 ± 0.021,1 ± 0.01,1.013 ± 0.0058
O=C(Nc1cc(C(F)(F)F)cc(C(F)(F)F)c1)c1cc(Cl)ccc1O,1.02 ± 0.041,1.07 ± 0.025,1.01 ± 0.011,1.04 ± 0.015,1.004 ± 0.0098,1.02 ± 0.015
COc1cc2nc(N3CCN(C(=O)OCc4ccccc4)[C@H](C(=O)NC(C)(C)C)C3)nc(N)c2cc1OC,1.017 ± 0.0058,1 ± 0.018,1.03 ± 0.031,1.037 ± 0.0058,1.002 ± 0.0072,1.017 ± 0.0058
COCCCC/C(=N\OCCN)c1ccc(C(F)(F)F)cc1 [Fluvoxamine maleate],1.01,–,–,–,–,–
COC(=O)[C@H](c1ccccc1Cl)N1CCc2sccc2C1 [Clopidogrel],1.01 ± 0.012,0.982 ± 0.011,1.04 ± 0.021,1.027 ± 0.0058,1.01 ± 0.01,0.993 ± 0.01
C[C@]12CCC(=O)C=C1CC[C@@H]1[C@@H]2C(=O)C[C@@]2(C)[C@H]1CC[C@]2(O)C(=O)CO [Cortisone],1.007 ± 0.0058,1.01 ± 0.014,1.01 ± 0.011,1 ± 0.012,1.007 ± 0.0058,1.004 ± 0.01
CC(C)NCC(O)c1ccc(O)c(O)c1 (racemic) [(±)-Isoproterenol hydrochloride],1.01 ± 0.011,1.03 ± 0.042,1.01,1.04 ± 0.064,0.99967 ± 0.00058,1.02 ± 0.021
CC(C)NCC(O)c1ccc(O)c(O)c1 (racemic) [R(-)-Isoproterenol (+)-bitartrate],1.003 ± 0.0064,1.02 ± 0.021,1.006 ± 0.0063,1.001 ± 0.0085,1.007 ± 0.0058,1.017 ± 0.0058
CC(C)NCC(O)c1ccc(O)c(O)c1 (racemic) [S(+)-Isoproterenol (+)-bitartrate],0.9917 ± 0.0072,1.01 ± 0.019,0.9907 ± 0.0063,1.01 ± 0.079,0.9803 ± 0.0011,0.984 ± 0.014

Compound,normalised cell viability [1],normalised cell viability [2],normalised cell viability [3],normalised cell viability [4],normalised cell viability [5],normalised cell viability [6]
CC(C)NCC(O)c1ccc(O)c(O)c1 (racemic) [Isoprenaline HCl],1.01 ± 0.01,1.01 ± 0.019,1.02 ± 0.023,1.03 ± 0.023,1.003 ± 0.0058,0.9973 ± 0.0023
CCCCCCCCCCCCCCCC(=O)NCC(COP(=O)([O-])OCC[N+](C)(C)C)OCC (racemic) [rac-2-Ethoxy-3-hexadecanamido-1-propylphosphocholine],1.01 ± 0.01,1.09 ± 0.023,1.007 ± 0.0058,1.113 ± 0.0058,1.013 ± 0.0058,1.02 ± 0.011
CNC(=O)[C@H]1O[C@@H](n2cnc3c(N)ncnc32)[C@H](O)[C@@H]1O [5'-N-Methyl carboxamidoadenosine],0.982 ± 0.02,0.972 ± 0.015,0.988 ± 0.013,0.961 ± 0.0028,0.9893 ± 0.0078,0.976 ± 0.0053
CC[n+]1c(/C=C/C=C2/N(C)c3ccccc3C2(C)C)sc2ccccc21,0.467 ± 0.026,0.434 ± 0.017,0.901 ± 0.032,0.798 ± 0.02,0.237 ± 0.0069,0.112 ± 0.0067
CNC[C@@H](O)c1ccc(O)c(O)c1 [L-Adrenaline],1.02 ± 0.017,1.01 ± 0.024,1.01,0.992 ± 0.036,1.003 ± 0.0061,1.002 ± 0.0076
Cc1ccc(S(=O)(=O)C=CC#N)cc1,0.979 ± 0.013,0.976 ± 0.0056,0.9813 ± 0.0023,0.997 ± 0.023,0.988 ± 0.011,0.688 ± 0.081
Cc1ccc(N(CC2=NCCN2)c2cccc(O)c2)cc1 [Phentolamine Mesylate],0.983 ± 0.016,0.9297 ± 0.0083,0.986 ± 0.022,0.9663 ± 0.0038,0.9897 ± 0.0068,1.003 ± 0.0061
Cc1ccc(N(CC2=NCCN2)c2cccc(O)c2)cc1 [Phentolamine mesylate],0.9687 ± 0.0031,0.98 ± 0.003,0.997 ± 0.014,0.987 ± 0.01,0.97 ± 0.0044,0.963 ± 0.012
Clc1ccc2c(c1)C(N1CCNCC1)=Nc1ccccc1O2 [Amoxapine],1.01 ± 0.026,0.994 ± 0.014,0.803 ± 0.32,0.9995 ± 0.00071,0.9907 ± 0.0057,0.985 ± 0.0062
O=C(c1cc(Cc2n[nH]c(=O)c3ccccc23)ccc1F)N1CCN(C(=O)C2CC2)CC1,0.997 ± 0.015,1.02 ± 0.029,1.001 ± 0.0082,1.03 ± 0.011,0.985 ± 0.003,0.89 ± 0.02
O=C(O)CCc1nc(-c2ccccc2)c(-c2ccccc2)o1 [Oxaprozin],1.02,1.03 ± 0.04,1.02 ± 0.011,1.05 ± 0.049,1,1.01 ± 0.015
c1ccc(CC2=NCCN2)cc1 [Tolazoline HCl],1.013 ± 0.0058,1.01 ± 0.012,1.03 ± 0.011,1.01 ± 0.02,0.9887 ± 0.0035,0.98 ± 0.012
NCCCCC(=O)O [5-Aminovaleric acid hydrochloride],0.9807 ± 0.0096,0.99533 ± 0.00058,0.9797 ± 0.0035,0.9945 ± 0.00071,0.992 ± 0.0066,0.9927 ± 0.0032
OCCN1CCN(CCCN2c3ccccc3Sc3ccc(C(F)(F)F)cc32)CC1 [Fluphenazine dihydrochloride],0.969 ± 0.013,0.882 ± 0.022,0.993 ± 0.021,1.007 ± 0.0058,1.013 ± 0.0058,0.988 ± 0.021
CC(C(=O)O)c1ccc(CC2CCCC2=O)cc1 (centres undefined) [loxoprofen],0.992 ± 0.0062,0.977 ± 0.016,0.994 ± 0.017,0.996 ± 0.038,0.9943 ± 0.0049,0.9997 ± 0.0093
O=C1NC(=O)/C(=C\c2ccc3nccnc3c2)S1,0.99 ± 0.011,0.868 ± 0.034,1.01 ± 0.011,0.902 ± 0.025,1 ± 0.015,0.983 ± 0.015
CN(C)CCCN1c2ccccc2CCc2ccc(Cl)cc21 [Clomipramine hydrochloride],1.01 ± 0.01,0.936 ± 0.023,1.01 ± 0.015,1.01 ± 0.022,1.002 ± 0.0072,1.003 ± 0.0061
